Assay results taken from the supplement of paper PMC8728848.
The list shows a part of the results.

Columns and labels:
Test in all cases: glycan array binding signal (z-score within array); higher = stronger binding
Settings in all cases: glycan notation: IUPAC condensed, linker removed
[1] = biological target: Fuc(a1-2)Gal
Summary of the method: (§1)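 Arrays were curated from the Consortium for Functional Glycomics database, 3228 in total, and kept only where the protein sequence was available. Binding is expressed as a within-array Z-score. This score was averaged across arrays of the same protein sequence at different concentrations or buffers and across linkers, and negative values can be read as non-binding.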

[2] = biological target: Fuc(a1-2)Gal(b1-3)GalNAc
Summary of the method: as §1

[3] = biological target: Fuc(a1-2)Gal(b1-3)GalNAc(a1-3)[Fuc(a1-2)]Gal(b1-4)Glc
Summary of the method: as §1

[4] = biological target: Fuc(a1-2)Gal(b1-3)GalNAc(a1-3)[Fuc(a1-2)]Gal(b1-4)GlcNAc
Summary of the method: as §1

[5] = biological target: Fuc(a1-2)Gal(b1-3)GalNAc(b1-3)Gal
Summary of the method: as §1

[6] = biological target: Fuc(a1-2)Gal(b1-3)GalNAc(b1-3)Gal(a1-4)Gal(b1-4)Glc
Summary of the method: as §1

[7] = biological target: Fuc(a1-2)Gal(b1-3)GalNAc(b1-4)[Neu5Ac(a2-3)]Gal(b1-4)Glc
Summary of the method: as §1

[8] = biological target: Fuc(a1-2)Gal(b1-3)GlcNAc
Summary of the method: as §1

[9] = biological target: Fuc(a1-2)Gal(b1-3)GlcNAc(b1-2)Man(a1-3)[Fuc(a1-2)Gal(b1-3)GlcNAc(b1-2)Man(a1-6)]Man(b1-4)GlcNAc(b1-4)GlcNAc
Summary of the method: as §1

[10] = biological target: Fuc(a1-2)Gal(b1-3)GlcNAc(b1-2)Man(a1-3)[Fuc(a1-2)Gal(b1-3)GlcNAc(b1-2)Man(a1-6)]Man(b1-4)GlcNAc(b1-4)[Fuc(a1-6)]GlcNAc
Summary of the method: as §1

[11] = biological target: Fuc(a1-2)Gal(b1-3)GlcNAc(b1-3)Gal(b1-4)Glc
Summary of the method: as §1

[12] = biological target: Fuc(a1-2)Gal(b1-3)GlcNAc(b1-3)GalNAc
Summary of the method: as §1

[13] = biological target: Fuc(a1-2)Gal(b1-3)GlcNAc(b1-3)[Fuc(a1-2)Gal(b1-3)GlcNAc(b1-6)]GalNAc
Summary of the method: as §1

[14] = biological target: Fuc(a1-2)Gal(b1-3)GlcNAc(b1-3)[Gal(b1-4)GlcNAc(b1-6)]Gal(b1-4)Glc
Summary of the method: as §1

[15] = biological target: Fuc(a1-2)Gal(b1-3)GlcNAc(b1-3)[Neu5Ac(a2-6)Gal(b1-4)GlcNAc(b1-6)]Gal(b1-4)Glc
Summary of the method: as §1

[16] = biological target: Fuc(a1-2)Gal(b1-3)GlcNAc6S
Summary of the method: as §1

[17] = biological target: Fuc(a1-2)Gal(b1-3)[Fuc(a1-4)]GlcNAc
Summary of the method: as §1

[18] = biological target: Fuc(a1-2)Gal(b1-3)[Fuc(a1-4)]GlcNAc(b1-2)Man(a1-3)[Fuc(a1-2)Gal(b1-3)[Fuc(a1-4)]GlcNAc(b1-2)Man(a1-3)]Man(b1-4)GlcNAc(b1-4)GlcNAc
Summary of the method: as §1

[19] = biological target: Fuc(a1-2)Gal(b1-3)[Fuc(a1-4)]GlcNAc(b1-2)Man(a1-3)[Fuc(a1-2)Gal(b1-3)[Fuc(a1-4)]GlcNAc(b1-2)Man(a1-6)]Man(b1-4)GlcNAc(b1-4)[Fuc(a1-6)]GlcNAc(b1-4)[Fuc(a1-6)]GlcNAc
Summary of the method: as §1

[20] = biological target: Fuc(a1-2)Gal(b1-3)[Fuc(a1-4)]GlcNAc(b1-3)[Fuc(a1-3)[Gal(b1-4)]GlcNAc(b1-6)]Gal(b1-4)Glc
Summary of the method: as §1

[21] = biological target: Fuc(a1-2)Gal(b1-3)[Fuc(a1-4)]GlcNAc(b1-3)[Gal(b1-4)GlcNAc(b1-6)]Gal(b1-4)Glc
Summary of the method: as §1

[22] = biological target: Fuc(a1-2)Gal(b1-4)Fuc(a1-3)]GlcNAc(b1-2)Man(a1-3)[Fuc(a1-2)Gal(b1-4)[Fuc(a1-3)]GlcNAc(b1-2)Man(a1-6)]Man(b1-4)GlcNAc(b1-4)GlcNAc
Summary of the method: as §1

[23] = biological target: Fuc(a1-2)Gal(b1-4)Glc
Summary of the method: as §1

[24] = biological target: Fuc(a1-2)Gal(b1-4)Glc6S
Summary of the method: as §1

[25] = biological target: Fuc(a1-2)Gal(b1-4)GlcNAc
Summary of the method: as §1

[26] = biological target: Fuc(a1-2)Gal(b1-4)GlcNAc(b1-2)Man
Summary of the method: as §1

[27] = biological target: Fuc(a1-2)Gal(b1-4)GlcNAc(b1-2)Man(a1-3)[Fuc(a1-2)Gal(b1-4)GlcNAc(b1-2)Man(a1-6)]Man(b1-4)GlcNAc(b1-4)GlcNAc
Summary of the method: as §1

[28] = biological target: Fuc(a1-2)Gal(b1-4)GlcNAc(b1-2)Man(a1-3)[Fuc(a1-2)Gal(b1-4)GlcNAc(b1-2)Man(a1-6)]Man(b1-4)GlcNAc(b1-4)[Fuc(a1-6)]GlcNAc
Summary of the method: as §1

[29] = biological target: Fuc(a1-2)Gal(b1-4)GlcNAc(b1-2)[Fuc(a1-2)Gal(b1-4)GlcNAc(b1-4)]Man(a1-3)[Fuc(a1-2)Gal(b1-4)GlcNAc(b1-2)Man(a1-6)]Man(b1-4)GlcNAc(b1-4)GlcNAc
Summary of the method: as §1

[30] = biological target: Fuc(a1-2)Gal(b1-4)GlcNAc(b1-3)Gal(b1-4)GlcNAc
Summary of the method: as §1

B1: ECA (Erythrina cristagalli), P83410 (protein)
chain: VETISFSFSEFEPGNDNLTLQGAALITQSGVLQLTKINQNGMPAWDSTGRTLYTKPVHMWDSTTGTVASFETRFSFSIEQPYTRPLPADGLVFFMGPTKSKPAQGYGYLGVFNNSKQDNSYQTLAVEFDTFSNPWDPPQVPHIGIDVNSIRSIKTQPFQLDNGQVANVVIKYDAPSKILHVVLVYPSSGAIYTIAEIVDVKQVLPDWVDVGLSGATGAQRDAAETHDVYSWSFQASLPE
- glycan array binding signal (z-score) [1]: -0.291
- glycan array binding signal (z-score) [2]: -0.261
- glycan array binding signal (z-score) [3]: -0.468
- glycan array binding signal (z-score) [4]: -0.261
- glycan array binding signal (z-score) [5]: -0.263
- glycan array binding signal (z-score) [6]: -0.125
- glycan array binding signal (z-score) [7]: -0.248
- glycan array binding signal (z-score) [8]: -0.164
- glycan array binding signal (z-score) [9]: 0.535
- glycan array binding signal (z-score) [10]: 0.521
- glycan array binding signal (z-score) [11]: -0.36
- glycan array binding signal (z-score) [12]: -0.299
- glycan array binding signal (z-score) [13]: 0.223
- glycan array binding signal (z-score) [14]: -0.111
- glycan array binding signal (z-score) [15]: -0.165
- glycan array binding signal (z-score) [16]: -0.278
- glycan array binding signal (z-score) [17]: -0.348
- glycan array binding signal (z-score) [18]: 0.247
- glycan array binding signal (z-score) [19]: 0.449
- glycan array binding signal (z-score) [20]: -0.443
- glycan array binding signal (z-score) [21]: -0.309
- glycan array binding signal (z-score) [22]: 0.164
- glycan array binding signal (z-score) [23]: -0.242
- glycan array binding signal (z-score) [24]: 0.055
- glycan array binding signal (z-score) [25]: 0.832
- glycan array binding signal (z-score) [26]: -0.034
- glycan array binding signal (z-score) [27]: 0.791
- glycan array binding signal (z-score) [28]: 0.262
- glycan array binding signal (z-score) [29]: 0.53
- glycan array binding signal (z-score) [30]: 1.56
